Results from the RNAGym collection of RNA variant scans (doi:10.7554/elife.90254).
The source gives no read counts; variants with many changes may rest on few reads.

B1: LINE1-full (parent)
chain: UACGUAGGUGGUUUUCCCCUGAUAGUGCUAAGGGGGCCUGGAAGUUUGGACUGGGCAGAGCUCAACACAGCGUGGCAAAGUGGCUGUGGCUAGACUGCCUCUCUGGAUUCCUCGUCACUCAGCAGGGCAUCUCUGAGAGAAAUGCC

Variants of: B1
Experiment: self-cleavage, relative activity (ratio to wild type); higher = more cleavage; in vitro, sequencing; the parent is a self-cleaving ribozyme
Variant A50U A67U U109A has a self-cleavage of 0.04. Work on G48A A64G U85C G126C yielded a self-cleavage of 0.05. A50U U62C A67G A92U showed a self-cleavage of 0. In the case of A50G G83A U100C C110U A129G, the self-cleavage is reported as 0.82. G53A A59U A138G showed a self-cleavage of 0.47. In the case of C51U C103U U130C A140U, the self-cleavage is reported as 0.71. With A50G U73C A140G the self-cleavage was 2.02. Variant G53A A64G A141G has a self-cleavage of 0.2. In the case of C51A U85C A140G, the self-cleavage is reported as 0.11. Work on U52G A77U A78G yielded a self-cleavage of 1.9. With U47C U87A A138G the self-cleavage was 0.09. G48A A94G A107G U130C A136G showed a self-cleavage of 0. A50G A57G A67U A136G showed a self-cleavage of 0.11. A50G A69G A77U showed a self-cleavage of 0. In the case of A50G G89A A140C, the self-cleavage is reported as 0.02. With G49A A138U A140G the self-cleavage was 0.75. Work on U47G U115C A124G yielded a self-cleavage of 0.38. For U52C U102C A136G, the self-cleavage was 1.46. With A50U U87A U108A U109C U115A the self-cleavage was 0. In the case of U52A A69U U73C G75U G106A G126A A129G, the self-cleavage is reported as 0.06. A50G U132A U134A showed a self-cleavage of 0.84. With U52A U62C U108C the self-cleavage was 0. Work on U52A C61U U102C G114A A121G yielded a self-cleavage of 0.02. With U47G A67G A77G A79G the self-cleavage was 1.31. In the case of A50G A64G G126A, the self-cleavage is reported as 0.29. U47C U91A U132A gave a self-cleavage of 1.15. U52A C103U U104C gave a self-cleavage of 1.27. For G49A A59U A79G, the self-cleavage was 0.62. Work on G49A U115C A142C yielded a self-cleavage of 0.63. Variant U52C U85G U132A has a self-cleavage of 0. A50U A77G U87A U96C showed a self-cleavage of 0. A50U C71U G89A gave a self-cleavage of 0.01. A50G C128U A129U gave a self-cleavage of 1.33. G49U C110U U130C showed a self-cleavage of 1.09. In the case of U47C U87G A117U G144A, the self-cleavage is reported as 0.53. Variant U47C U96A A141G U143C has a self-cleavage of 0.06. With G53A C56U U62C A78U the self-cleavage was 0.02. Variant A50G A77U A141G has a self-cleavage of 1.25. Variant U47C C90U U108C has a self-cleavage of 0.02. In the case of U47C G82U A136U, the self-cleavage is reported as 1.62. Variant U52A U100C A142G has a self-cleavage of 1.96. In the case of A50G G53A A57G A77G A117G, the self-cleavage is reported as 0. For A50U U73C A136G A142G G144A, the self-cleavage was 2.01. In the case of A50G U109A A141G, the self-cleavage is reported as 1.34. Work on A50G A64C A69U C84A A138G U143C yielded a self-cleavage of 0.02. In the case of U52C A129G A140G, the self-cleavage is reported as 2.16. U52C U109A C120A showed a self-cleavage of 0.97. U52C A77G U132C gave a self-cleavage of 1.91. For U52A A129G A138U, the self-cleavage was 1.34. A50G A64U A107G showed a self-cleavage of 0.82. With U52G U91C A142G C146U the self-cleavage was 0.57. Work on A50G A59G U87A U96C yielded a self-cleavage of 0. G48A U81C G125U showed a self-cleavage of 1.33. U52A C56U C68A A77U gave a self-cleavage of 0.04. For A50G U87C A129U, the self-cleavage was 0. In the case of G53A A92G A142G, the self-cleavage is reported as 0.11. Variant C51U U62C G74A has a self-cleavage of 0.04. Variant A50G A67U C128U has a self-cleavage of 0.07. For U52C A57C U85C G105A U115C, the self-cleavage was 0. In the case of U52C U62A A78G U108C, the self-cleavage is reported as 0. Work on U52A U96C U102A U112C G114A U134A yielded a self-cleavage of 0. Variant G48A G72C A94G U115C has a self-cleavage of 0.28. For A50G C76U U134G, the self-cleavage was 1.63. Work on U47C U119A A141G yielded a self-cleavage of 1.69. For A50U A136U U143C, the self-cleavage was 0.17. For G53A U85A C99U U130C, the self-cleavage was 0.03. With A50U A78G A94U U134G the self-cleavage was 0.09. With A50G U52A C61U U143C the self-cleavage was 0. A50G U73A A141G showed a self-cleavage of 0.97. For U52A U130A A138G, the self-cleavage was 0.88. A50U U108C U132C gave a self-cleavage of 2.12. Variant G49A U52C U73A has a self-cleavage of 0.73. With U52A U104C U108C the self-cleavage was 1.15. With A50G U81A U85C C113U A117G A138G the self-cleavage was 0.13. G49A U100C A136G gave a self-cleavage of 2.08. Variant A50G U100A U104C has a self-cleavage of 2.21. With U47C U62C A107U the self-cleavage was 0.07. Work on A50G A92U U134C yielded a self-cleavage of 0.53. G53A A65G U134C gave a self-cleavage of 0.05. U52G A140G U143C showed a self-cleavage of 0.5. In the case of U47C G86A A136U A141G, the self-cleavage is reported as 0.28. U47C U73A A121G gave a self-cleavage of 2.06. A50U A57G G74A showed a self-cleavage of 0.32. With U52A U108A U132C the self-cleavage was 2.12. Work on U47C G70A C113U yielded a self-cleavage of 0.11. With U52C C76U U108G the self-cleavage was 1.9. U47C U91C U115A U143C gave a self-cleavage of 2.21. With G48A U100C U134C G139A U143A the self-cleavage was 2.57. With A50U U81A A136G the self-cleavage was 2.15. Work on A50G A92G A141G yielded a self-cleavage of 0. U52C U62A A79C A129G showed a self-cleavage of 0. G48A U73C U112C showed a self-cleavage of 1.18. C51U U100C U104G showed a self-cleavage of 1.15. Work on U52C A65U U85A yielded a self-cleavage of 0.06. A50U U100C U134C showed a self-cleavage of 1.38. Work on U47C C113A A124U yielded a self-cleavage of 0.39. A50U A67U U108C A142G showed a self-cleavage of 0.09. In the case of U52G A57C G74A A140G, the self-cleavage is reported as 0.16. U52C C56U A92G gave a self-cleavage of 0.03. A50G U104A U143A showed a self-cleavage of 1.08. G49U A59G A79G G89U gave a self-cleavage of 0.04. For A50G A77G U96A, the self-cleavage was 0. In the case of U52A A67U G70C U100C A140U A142G, the self-cleavage is reported as 0. For G49A U52C U73C A124G, the self-cleavage was 0.4. Variant G53A A65U A121G has a self-cleavage of 0.13. Work on U52C G106C A141G yielded a self-cleavage of 0.8. With G49A U85C A129G the self-cleavage was 0.07. For A50U U73A A79G U104C, the self-cleavage was 1.09. For G53A U81A U108C G114A, the self-cleavage was 2.14. A50G A57G A69G A140G gave a self-cleavage of 0. For A50G C71U A136G, the self-cleavage was 0.28. For G48A A50G U104C A136U, the self-cleavage was 1.99. U52C C71U A77G G86A gave a self-cleavage of 0.04. Variant A50G A59U U132A has a self-cleavage of 0.6. For G48A U130C G139U, the self-cleavage was 1.02. Work on U52A A67G C71U U112C yielded a self-cleavage of 0.06. In the case of U52A U104A C123G, the self-cleavage is reported as 1.06. For A50G A67U A107G A138G, the self-cleavage was 0.06. Variant U52C U62C U104A has a self-cleavage of 0.07. Variant A50G C76U A138U has a self-cleavage of 1.55. For U47C U87A A141G, the self-cleavage was 0.21. Work on A50G U52A U119A yielded a self-cleavage of 0.53. Variant A50G C101U U102C U132C has a self-cleavage of 0.82. With A50G A107U U134C the self-cleavage was 0.64. Variant U52C A64U U81G A94U has a self-cleavage of 0.21. In the case of U52C A117G A138G A142G, the self-cleavage is reported as 2.63. In the case of A50U A117G A142G, the self-cleavage is reported as 1.46. U52C U87A A124U showed a self-cleavage of 0. Work on U52A A77G C113A yielded a self-cleavage of 1.92. In the case of U47C U108C G127A, the self-cleavage is reported as 2.51. Variant U52C C76A A141U has a self-cleavage of 1.45. Variant A50G A67U G88U has a self-cleavage of 0.06. G49A A117U A140G gave a self-cleavage of 1.28. U52A A59U U115C gave a self-cleavage of 0.62. In the case of A50G A92U A136U, the self-cleavage is reported as 0.98. In the case of A50G U87A A92G A141G, the self-cleavage is reported as 0.26. With U47G A65G U87A the self-cleavage was 0. In the case of U47C G58A A92U, the self-cleavage is reported as 0.01. In the case of U52C U91A U109A U119A, the self-cleavage is reported as 0.95. A50G A92G G125U showed a self-cleavage of 0. With U47C G93A A94G U96A A141G the self-cleavage was 0.19. U52C C68U U104A A141G gave a self-cleavage of 0.11. With U52A A67G U73A U112A U132C the self-cleavage was 0.58. In the case of U52C A79G A129G, the self-cleavage is reported as 2.45. Variant G48A A59G U100C U112A has a self-cleavage of 0.09. Work on U52C A57G U81C yielded a self-cleavage of 0. For U47C U52C G72U U102C U108C, the self-cleavage was 0.77. For G53A A78G U119C A138U A142G, the self-cleavage was 1.98. Work on A50U A107G A129U yielded a self-cleavage of 0.76. Work on G48U A69G C123U yielded a self-cleavage of 0.31. A50G A94G A129U gave a self-cleavage of 0. A50G U62A G88A U109C U130C gave a self-cleavage of 0.07. Work on A50G A59G U112A yielded a self-cleavage of 0.2. With C51U A78G U85A U87C A94G U134C A141G the self-cleavage was 0.07. For U47C U52C A124U A141G, the self-cleavage was 1.7. For U52C U91C A136G A140G, the self-cleavage was 0.33. For U47C U104C G137A, the self-cleavage was 1.2. For A50G A69G U100C C101U, the self-cleavage was 0. For G48A A107G U108C, the self-cleavage was 1.27. With A50G G80U U85A A136G the self-cleavage was 0.02. G48A A67G U85C gave a self-cleavage of 0.14. Work on A50U A69G U91C yielded a self-cleavage of 0.1. U47C U62C A77G A141G showed a self-cleavage of 0. Variant U47C G74A U102C has a self-cleavage of 1.01. In the case of U52C C71U U100A U115A A117U, the self-cleavage is reported as 0.07. In the case of A50G A79U A142G, the self-cleavage is reported as 1.17. Work on U52C U62C C90G yielded a self-cleavage of 0.
